Drawing on PMC10726135, this text covers binding signal (log2 normalized intensity) for 93 sequences.

The list shows a part of the results. At the low end of the ranking the order means little. The protein was read in a cell extract, so binding may be indirect.

For the test, the target named is T1, HNF4alpha2 (COS-7 nuclear extract) (UniProt P41235).
T1 sequence: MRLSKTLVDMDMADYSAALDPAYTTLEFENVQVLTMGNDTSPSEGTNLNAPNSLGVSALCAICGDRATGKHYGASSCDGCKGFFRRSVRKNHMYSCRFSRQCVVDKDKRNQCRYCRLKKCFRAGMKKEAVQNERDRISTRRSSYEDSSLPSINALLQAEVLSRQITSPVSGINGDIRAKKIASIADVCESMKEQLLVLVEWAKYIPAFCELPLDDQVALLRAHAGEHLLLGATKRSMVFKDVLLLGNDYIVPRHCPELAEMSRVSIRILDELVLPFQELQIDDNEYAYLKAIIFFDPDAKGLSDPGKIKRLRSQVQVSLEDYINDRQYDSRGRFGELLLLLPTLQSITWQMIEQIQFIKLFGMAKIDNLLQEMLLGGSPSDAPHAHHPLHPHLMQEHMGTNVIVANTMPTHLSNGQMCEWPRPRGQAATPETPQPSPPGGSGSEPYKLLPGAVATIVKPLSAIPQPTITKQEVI
Nature of the test: protein-binding microarray. The following applies: COS-7 nuclear extract on double-stranded Agilent 4x180k PBM; binding buffer, salt, pH and temperature not given; high values mean tight binding; double strand, one strand shown; sequences stand for … in …GCCTAGGGAGATTAGAGTATCGGTCGA
On to GCTGTTTCCAAATATCTGACTGTAAATTTG, for which the binding signal (log2 normalized intensity) was 0.229. As for TTACCTGAAATGAGACCAAAGTATTTAACC, the figure is 0.872; as for AATGGTGGGATAGGAGACATGAAGGACATA, -0.721; as for AGGCTCTTAGCAGAAGCCCTCCTGGACATT, 1.64. With GAGCCCTCCCCTTGTCTGATAAGATTCAGA, the binding signal (log2 normalized intensity) stood at 3.13. For the sequence TCTTGGAATGTTGAACCTTTCTTTGTCTTT, the binding signal (log2 normalized intensity) worked out at 2.24. As to GGTGACAGTATCAAAGTCCCCAGATAAGAC, the binding signal (log2 normalized intensity) stood at 3.19. As for TCACCACTTTTGCAATGTTTCCAAACCCCT, the figure is 2.72; as for TATGTGGCATTTCAAAGGAGGAGGCCTAGG, -1.03. CCTTGGCCTGCTCCTTGGAAGTCGCCGTGA: the binding signal (log2 normalized intensity) was -1.05. As for ATGCCTGATAAAGGGGGCAAAGGGCATGGG, the figure is 4.85. As for TGGGCCTGGCTGAGCCTGGGCCGCCAAACT, the figure is -1.13; as for AGCTGCTCTAAGAATGCAGAAACAAATACA, -1.08; as for AAGTCCAACAGGGTTAAAAGCAAACCAAAA, -1.14. As for GTAGACAATAGGGCAGAGGAAACAAACAGA, the binding signal (log2 normalized intensity) is -1.15.

For TCATCTGGTGGCTTGAGTTGGAGAAGAGCA, the binding signal (log2 normalized intensity) stood at 0.32. As for ATAGTGATAAGGATCTAAGAACTAACATGG, the figure is -1.15.

Take GCAGTGGGACAAAGGTCACAGGAAAGGGAC: the binding signal (log2 normalized intensity) came to 4.13. On to GAACAGTCCTACAAATGATCAAAGGTTGGT, for which the binding signal (log2 normalized intensity) was found to be 2.98. In the case of TCTGCCATTGTCGTGGTTGTAGAAAGCAGC, the binding signal (log2 normalized intensity) was determined as 0.981. GATCATAATCCCTTATGACGGACAAAGGGC: the binding signal (log2 normalized intensity) came out at 1.74. As for TTTTCTTGGACTTTGGTCATCCTTTACTTT, the figure is 6.04. CACCTGGTTCCTTGCAAGATAAGGGTCAGC: the binding signal (log2 normalized intensity) was found to be 2.3.

For the sequence ACCCTGGTCTTTGCCCTTTCCTAGACGTAA, the binding signal (log2 normalized intensity) was 2.45. Turning to GAGAGGGTTAAAAACCAGAATGACAAGCTG, the binding signal (log2 normalized intensity) is -1.21. As for AGGCAGGGGATGAGATCTGAAGATAAATGC, the figure is -1.07. Turning to AAGAAAGAGACCTTTACCCTGACCTGTCAA, the binding signal (log2 normalized intensity) was determined as 2.82.

With CCCTTTAGTGCCTGGATCTTGGAACAGGTC, the binding signal (log2 normalized intensity) turned out to be 1.6.

Turning to TGTGCTCCCGACTGCTCCACCAGCGCGTGC, the binding signal (log2 normalized intensity) was -1.2. As to TTCTAAAAATAGCCTTACTTTAAAGCTGAT, the binding signal (log2 normalized intensity) is -0.582.

TTACAGATAAGCAGAAGGTCAGGTGAATCA: the binding signal (log2 normalized intensity) was -1.07. As for CCAGGAGCCCCACGTTTATCTTGGAACCTC, the figure is 1.4. As for TACAGGGAGCTATTCTTTAACCAGAGTCTA, the figure is -0.896. For CTGACAAGTATCTCGGTCAAACCTTTGACC, the binding signal (log2 normalized intensity) is 5.77.

For CCATCCCAGGTCCACAGTGCACATTCCAGA, the binding signal (log2 normalized intensity) is 0.202. Regarding TCAGATTGTAGCCTCATTTCACCTTTGGTC, the binding signal (log2 normalized intensity) stood at 5.58. In the case of TAGCCAGACCTGTTCCTCTGCCCCTCATCG, the binding signal (log2 normalized intensity) was determined as 1.7. As for GCTCCCGCCTGACCTGGCCCCTGAGGGTGC, the figure is 1.24; as for GCCTGCTCCTTGGAAGTCGCCGTGAGGTTA, -0.0732. As to AGATAATCCCCAGCCACGCTCCTCTTATCA, the binding signal (log2 normalized intensity) is 0.929. As for TTACAAAGTATGTTCACAAGGAATTGGAAT, the figure is 1.55; as for TTGTAGTGTCATTGTTATTTACGGTGGGCA, 2.04.

With GAGGTTGAATTCCAAAGGTTATTTTCTTTA, the binding signal (log2 normalized intensity) came to 2.55. As to GGAGAGGCAAGTATGGTAAGGTCGACCTTT, the binding signal (log2 normalized intensity) amounted to 6.25.

Consider TTTCCCCCTATTTCCCTCTGTGCCCGAGCT, for which the binding signal (log2 normalized intensity) is 3.95. In the case of TGACTTTCTTCCTATGGGATCAAAGTGCGA, the binding signal (log2 normalized intensity) was 4.63.

Turning to AGAGGACTTCCAAAGCCCCTTTCCACTCTA, the binding signal (log2 normalized intensity) came to 0.98. As for TGCTCATAATGCCAGGCAGGAAGGAGCCTG, the figure is -1.15. As to CACATCCAGATGAGAGCAGAGGCTGGGGCC, the binding signal (log2 normalized intensity) is -1.12. For the sequence TAACTATGGTCACGCGGCCAAAATGTTCAG, the binding signal (log2 normalized intensity) came out at 0.22. As for TTTAGAGGATTTACTTATACAGCGTCTAAG, the figure is -1.19. For AGAGTCATCACAATAGGGAAACAGCGAGAG, the binding signal (log2 normalized intensity) was -1.13. In the case of CACCAGGGCCTCTGAGATAAGGGTTCAAAC, the binding signal (log2 normalized intensity) is 1.59. For CAAGACCTCTTTGCGGATAGATATGTTGAA, the binding signal (log2 normalized intensity) worked out at 1.67.

AGAGACAACCAAGGTTGCAGAGTGTCCCAC: the binding signal (log2 normalized intensity) was -0.964. Consider TGCCCTCTGTCCCATGGTGTACAAGGAGTC, for which the binding signal (log2 normalized intensity) came to 1.46.

With TATCACCTGCCAGCTGTTATGAGTCTGTTG, the binding signal (log2 normalized intensity) worked out at 1.32.

On to TAAGCACCCAGAGCCCCACCGTTGTGTAAT, for which the binding signal (log2 normalized intensity) is 2.21. On to AGACACAGACTCAAGTGAGGAAGGAACTGG, for which the binding signal (log2 normalized intensity) was -1.04. Consider CTCTCCCCACCCCCAAATCCCCTTCAAGTC, for which the binding signal (log2 normalized intensity) amounted to 5.43. Consider ACACGTGGGACCATGAGTACCAGGTCAAAA, for which the binding signal (log2 normalized intensity) came to 1.37. As to CCTTCCAAAGTCCACCTCAACCTCCCCCTG, the binding signal (log2 normalized intensity) was 5.29. As for CTTCAAACGGGAAGCGAGGCCTCATTGGCC, the figure is -1.15; as for TTCAACTGATAAGAAGGGGCCTAGCTTGTA, -1.2; as for CAGGGTGAAATTCAACAGAACTGTTTGAGG, 0.113.

Regarding TGTAGAATTATCCAGATCAAGGATTTTTTC, the binding signal (log2 normalized intensity) is -1.05. With TCATTGATGAGTGACCTTTGACCTCAGAGA, the binding signal (log2 normalized intensity) came to 9.89. Regarding CCAGTGGGGGGAAGCTCTGTCACTTCTGGT, the binding signal (log2 normalized intensity) is -1.08. Take AAGCATTGCTTGAGTCACTTGGTTTTCACA: the binding signal (log2 normalized intensity) was -0.259.

With CCCTTGACAATTCCTATTCATTCCCTAAGA, the binding signal (log2 normalized intensity) is -1.09. As to GAAGTGCTGACCTTTGGTCTAAACCTACTT, the binding signal (log2 normalized intensity) was determined as 5.08. As for GGTTCACTCTATGTTAGGCTGGAAAACTGG, the binding signal (log2 normalized intensity) came to 0.72. As for TAAAGGGCAGCAAGTATTCAAGAAAGGGGC, the figure is -1.05; as for ATCAGACACAGAGATAAGGAGGTAACCTTT, 3.48; as for TATGGGATGATCAGTAAGGAGAGGGGGCGG, -1.11.

With CTGCCAGGAGGGGACTTCAAAGGCTCCCCT, the binding signal (log2 normalized intensity) is -1.12. As for GTTTGCTAATATCTGATGTTAAATCCACGA, the figure is -0.531.

With AAGCTGCAATGGCTTCACAATTCCTAGCAA, the binding signal (log2 normalized intensity) is -1.08. Consider GAGAGTTAGTTCTGCAAACACCCCTCCCCC, for which the binding signal (log2 normalized intensity) is 5.44. Take TTAGATAGTAGCCCTTTGTATCTTTTAAGA: the binding signal (log2 normalized intensity) came to 1.62. Regarding ACACACACATTGCAGTATGCCCCCCCACCC, the binding signal (log2 normalized intensity) was 6.13. As for ACTGTTCAGTTCCTATTTCAACATCCTCTC, the figure is 0.886.

In the case of AACCAAGATTTACATCCTATCCTGGCTTCA, the binding signal (log2 normalized intensity) was -0.86. As for TTCTGGTGATCAAACAAAAGGGACAAAGGT, the figure is 1.74; as for TGGACATACCTCTAATCATAAAGCTGGGAA, 1.1; as for AATTGTGTCACTCCCCAGGAATGTGCTCCC, 2.26. In the case of GCAGTGAGTAACCTTGAGGAACTGAGTAAG, the binding signal (log2 normalized intensity) is -0.307.

For the sequence CAGGAGAAGCAGAACAGGTATTTCAAGGTT, the binding signal (log2 normalized intensity) worked out at 0.104.

On to CATCCTCAGGTAAAGATCAACCATCAAGAT, for which the binding signal (log2 normalized intensity) is -1.04. As to TGGTATGCTTAAGTGGCTCACCCAAGTCAC, the binding signal (log2 normalized intensity) is -1.15. In the case of TACTGACCAAATGGGAACATTCCTCAGGGA, the binding signal (log2 normalized intensity) is -1.14. As for CAGTCTAAAGTCTGATCCCAATTTATCTTT, the figure is 1.35; as for GTGTTGGAGCATTAGTTGACCATTGTGTTA, 2.08.
